Experimental data reported in PubChem BioAssay AID1159614 (National Center for Advancing Translational Sciences (NCATS), 2016).
Out of some 45,000 compounds screened, about 65 (0.1%) were called active. The call rests on the fitted dose curve; in most records, active means well fitted activation curve with a large enough effect; inconclusive means small, poorly fitted or top-dose-only effect; inactive means no such curve, though single readings can be large or run the other way. This is one part of the list.

Target: Galactocerebrosidase (Homo sapiens) (UniProt P54803)
Experiment: A Novel Cell-Based Assay to Identify Small Molecules for B -Galactocerebrosidase; further: 0% is about no effect; nearly all actives have a fitted effect of over 65% in size
Settings: 145M-Twi-hGALC-G270D cells (Twitcher mouse brain line with human GALC G270D), HMU-beta-Gal fluorescence, 48 h; series mostly up to 57.5 µM; activation: at the top concentration
Outline: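 Brain-derived Twitcher mouse 145M-Twi cells stably expressing human GALC-G270D or wild-type GALC, treated live, then residual GALC activity read by fluorescence of HMU-b-Gal substrate (0.1 mM final) in citrate-phosphate buffer pH 5.2 with sodium taurocholate. Signal increase indicates enhancement.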

Chain of UniProt P54803 (P54803 whole entry, looked up): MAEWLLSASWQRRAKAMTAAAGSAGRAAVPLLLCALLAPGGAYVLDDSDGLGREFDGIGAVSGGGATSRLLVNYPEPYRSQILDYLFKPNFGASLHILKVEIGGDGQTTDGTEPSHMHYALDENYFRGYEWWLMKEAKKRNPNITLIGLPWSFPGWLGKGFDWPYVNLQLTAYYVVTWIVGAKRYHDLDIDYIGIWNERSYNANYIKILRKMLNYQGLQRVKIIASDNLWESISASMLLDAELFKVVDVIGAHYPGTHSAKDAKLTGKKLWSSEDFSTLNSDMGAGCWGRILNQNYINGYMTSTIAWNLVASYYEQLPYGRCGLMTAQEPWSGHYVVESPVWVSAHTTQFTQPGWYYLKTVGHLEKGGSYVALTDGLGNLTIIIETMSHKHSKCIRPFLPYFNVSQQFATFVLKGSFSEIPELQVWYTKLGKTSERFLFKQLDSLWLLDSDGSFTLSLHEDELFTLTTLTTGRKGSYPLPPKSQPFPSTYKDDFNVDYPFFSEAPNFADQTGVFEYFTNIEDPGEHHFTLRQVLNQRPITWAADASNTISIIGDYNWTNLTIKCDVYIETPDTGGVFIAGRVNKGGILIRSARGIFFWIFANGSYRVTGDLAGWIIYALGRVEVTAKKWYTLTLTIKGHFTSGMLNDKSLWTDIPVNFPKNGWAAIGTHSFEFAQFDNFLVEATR

activation, inactive:
CCn1c2ccccc2c2nnc(N3CCN(c4ccc(OC)cc4)CC3)nc21 -7.1%
COc1ccc(-c2cc(C(F)(F)F)nc(SCCC(=O)Nc3ccc(O)cc3)n2)cc1 5.29%
Cc1ccc(C)c(S(=O)(=O)Nc2ccc3c(c2)CCCN3C(=O)c2cccs2)c1 -3.74%
Cc1nnc(N2CCC(C(=O)N3CCCCC3)CC2)c2nn(-c3ccccc3)c(C)c12 3.55%
COc1ccc(CNS(=O)(=O)c2ccc3c(c2)NC(=O)C(C)C(=O)N3)cc1 (stereo unspecified) 14%
COc1ccc(C)cc1NS(=O)(=O)c1ccc(-c2cnc(C3CC3)o2)cc1 -3.3%
Cc1ccc(C)c(Nc2ncnc3c2cnn3-c2ccc(F)cc2)c1 -12.4%
Fc1ccc([C@@H]2Nc3ccccc3[C@@H]3C=CC[C@@H]32)cc1 -1.12%
COc1ccc(/C=C/c2nc(C#N)c(N3CCCCCC3)o2)cc1OC 2.39%
O=C(Cn1cc(S(=O)(=O)c2ccc(Cl)cc2)c(=O)c2ccccc21)Nc1ccc2c(c1)OCO2 -2.28%
Cc1ccc(C)c(NC(=O)CSc2ncc3c(n2)-c2ccccc2N(Cc2ccccc2C)S3(=O)=O)c1 -5.18%
CCCc1c(C(=O)OCC)nnc2c(-c3ccccc3)c(C)nn12 -12.5%
CCCN(C(=O)c1cc2c(=O)n(CC)c3ccccc3c2s1)c1ccccc1F -3.58%
COc1ccc(CCN2C(=O)N(c3ccc(F)cc3)C(=O)C2CC(=O)Nc2ccccc2)cc1OC (stereo unspecified) -12.4%
CCc1ccc(Nc2ncnc3sc4c(c23)CCCC4)cc1 -27.6%
COc1ccc(CNc2n[nH]c(-c3ccco3)n2)cc1OC -26.8%
COc1cc(NC(=O)Cn2c(=O)n(Cc3ccccc3Cl)c(=O)c3cc(OC)c(OC)cc32)cc(OC)c1 -24.1%
CCc1ccc(NC(=O)c2cc(S(=O)(=O)N3CCCCC3)c[nH]2)cc1 13.3%
O=C(c1ccc(Nc2nc3ccccc3n3nnnc23)cc1)N1CCN(c2ccc(F)cc2)CC1 -11.1%
COc1ccc(C2c3c(n(C)c4ccccc34)C(=O)N2CC(=O)Nc2ccccc2Cl)cc1 (stereo unspecified) 0.644%
COc1cc(NC(=O)c2cc3nc(-c4ccc(C)cc4)cc(C(F)(F)F)n3n2)cc(OC)c1OC -19.5%
CCn1c2c(c(=O)n3ncc(C(=O)Nc4ccc(OC(F)(F)F)cc4)c13)CN(Cc1ccc(OC)cc1)CC2 -4.69%
O=C(Nc1cc(-c2nc3cc(Cl)ccc3o2)ccc1Cl)c1cccc2ccccc12 -12%
COc1ccc(CCNC(=O)c2c[nH]n3c(=O)c(Cc4ccccc4Cl)c(C)nc23)cc1OC -13.3%
O=S(=O)(Nc1ccc(F)cc1F)c1ccc(Br)s1 -9.73%
CC(=O)c1cccc(NC(=O)Cn2c(=O)oc3cc(S(=O)(=O)NCc4ccccc4)ccc32)c1 -24.8%
COc1ccc(OCc2ccc(-c3nc(C#N)c(N4CCC(C(N)=O)CC4)o3)o2)cc1 -13%
Cc1ccc(CNC(=O)c2nnn(Cc3ccc(F)cc3)c2N)cc1 -17%
COCCNC(=O)CCSc1nc(-c2ccc3c(c2)OCO3)cc(C(F)(F)F)n1 -10.1%
CCc1nnc2c(NCc3cccc(OC)c3)nc3ccccc3n12 -5.27%
COc1ccccc1N1CCN(c2cc(C)nc3c(-c4ccc(Cl)cc4)c(C)nn23)CC1 2.23%
COCCOC(=O)C1=C(C)N=C2SCCC(=O)N2C1c1ccc(OCc2ccccc2)c(OC)c1 (stereo unspecified) -10.4%
COCCCNc1nc2c(c(=O)n(C)c(=O)n2C)n1Cc1ccccc1 -18.5%
COc1cccc(-c2[nH]c3c(c2-c2c(-n4cccc4)n(C)c(=O)[nH]c2=O)c(=O)[nH]c(=O)n3C)c1 -16.4%
CN(C)c1ccc(CNC(=O)CCn2c(=O)c3cccn3c3ccc(F)cc32)cc1 -14.5%
Cc1ccc(NS(=O)(=O)c2ccc3c(c2)NC(=O)CCS3)cc1F -40.8%
Cn1c(=O)c2c(ncn2C)n(C)c1=O -11.5%
Cc1cn(C)c(CC(=O)N2CCN(c3ccc(F)cc3)CC2)c1C(=O)O -5.79%
O=C(NCc1ccc2c(c1)CCN2C(=O)c1ccccc1)c1ccc(Br)o1 -2.35%
CCOc1ccccc1C(=O)Nc1nnc(COC)s1 -14%
CCN(CC)S(=O)(=O)c1ccc2c(c1)c(=O)c(C(=O)NCc1ccccc1OC)cn2C -18.2%
Cc1ccc(C(=O)N2CCc3cc(CNC(=O)c4ccnn4C)ccc32)cc1 -11.8%
CCOc1ccc(C(=O)N2CCC(c3ccncc3)CC2)cc1 -5.21%
CCN(C(=O)Cn1cc(C(=O)c2ccc(F)cc2)c(=O)c2ccc(C)nc21)c1cccc(C)c1 -14.8%
COc1cc(NC(=O)Cn2c(=O)nc(-c3ccccc3F)c3cc(Cl)ccc32)cc(OC)c1 -12.8%
CCOC(=O)c1cc(OC(=O)c2cccc(Cl)c2)n(-c2ccccc2)n1 -18.7%
Cc1ccc(C)c(N2CCN(C(=O)Cn3c(C)c4cnn(-c5ccccc5)c(=O)c4c3C)CC2)c1 -1.75%
CC1CCCCN1c1nc(-c2ccc(C(C)(C)C)cc2)nc2ccccc12 (stereo unspecified) -12.6%
COC(=O)c1ccccc1NC(=O)Cn1nc(C(F)(F)F)c2c1CCCC2 -2.91%
Cc1ccc2c(c1)CC(C)N2S(=O)(=O)c1nnc(NC(=O)CC(C)C)s1 (stereo unspecified) -1.54%
Cc1cc(C)c2c(CC(=O)Nc3c(C(=O)c4ccc(F)cc4)oc4ccccc34)coc2c1 -18.8%
CC(C)c1ccc2occ(CC(=O)Nc3cccc(C(F)(F)F)c3)c2c1 -24.1%
COc1ccc(OC)c(NC(=O)CCc2c(C)nc3c(c(C)nn3C(C)(C)C)c2C)c1 -11.7%
CC(C)c1nc2ccc(C(=O)NCCCN3CCN(c4ccc(F)cc4)CC3)cc2o1 -5.95%
CCC1CN(C(=O)N2CCC(C(=O)NCc3ccco3)CC2)c2cc(C)ccc2O1 (stereo unspecified) -9.64%
COc1cccc(-n2c(-c3ccc(C)cc3)cc3c2CC(C)(C)CC3=O)c1 -24.1%
Cc1cc(=O)n(Cc2ccccc2Cl)c2c1c(C)nn2-c1ccccc1 -6.4%
Cc1cc(NC(=O)CSc2nc3c([nH]c4ccccc43)c(=O)n2-c2ccc(Cl)cc2)no1 -24.3%
O=C(NCC1CCN(Cc2ccccc2Cl)CC1)c1cc2ccc3cccnc3c2[nH]1 -8.91%
Cc1c(NC(=O)c2ccc(Cl)cc2)cc(C(C)C)c(O)c1S(=O)(=O)c1ccccc1 -6.55%
COc1ccccc1C(=O)Nc1ccc(OCc2cc(=O)n3cccc(C)c3n2)cc1 -11.7%
CCc1ccc(NC(=O)c2ccc3c(O)c(S(=O)(=O)c4ccccc4)c(=O)[nH]c3c2)cc1 -21.5%
CCOc1ccc(NC(=O)c2oc(=O)c3ccccc3c2-c2ccc(C)cc2)cc1 -12.3%
CCN1CCN(C(=O)c2ccc3c(c2)N(Cc2ccc(F)cc2)C(=O)c2ccccc2S3(=O)=O)CC1 -6.35%
Cc1cccc(OCc2nnc(-c3ccccc3)o2)c1 -18.5%
CCn1c2c(c(=O)n3ncc(C(=O)Nc4ccc(F)cc4Cl)c13)CN(Cc1ccc(OC)cc1)CC2 -18.4%
COc1ccc(CC(=O)Nc2nnc3n2CCS3)cc1 -20.4%
O=C(CC1Oc2ccccc2NC1=O)NCc1ccc(F)cc1 (stereo unspecified) -6.75%
Cc1ccc(CSc2nc3ccsc3c(=O)n2CCC(C)C)cc1 -2.24%
O=c1oc2ccc(F)cc2cc1-c1nc(-c2cccs2)no1 -1.08%
CCOc1ccc(-n2c(Cc3ccccc3)nnc2SCc2nc(-c3cccs3)no2)cc1 -5.88%
Cc1ccc(-c2nc(-c3cc4cccc(OCc5cccc(F)c5)c4oc3=O)no2)cc1 -14.1%
COc1cccc(NC(=O)c2sc3nc(C)c(C(=O)Nc4ccc(C)cc4C)c(-c4cccs4)c3c2N)c1 -22.3%
Cc1ccc2scc(N3CCN(c4cccc(C(F)(F)F)c4)CC3)c(=O)c2c1 -16%
COC(=O)CN1C(=O)C(C)(C)c2cc(S(=O)(=O)NCc3ccc(Cl)cc3)ccc21 -13.5%
CCCCN(CCCC)C1=C(C(=O)c2ccccc2)N(CC)S(=O)(=O)c2ccccc21 -37.6%
Cc1cc(C)cc(NC(=O)C2CCN(S(=O)(=O)c3c(C)noc3/C=C/c3ccco3)CC2)c1 -11%
Cc1ccn2c(Nc3c(C)cccc3C)c(-c3ccc(Cl)s3)nc2c1 -13.8%
COc1cc(CN(C(=O)COc2ccccc2Cl)c2ccccn2)cc(OC)c1OC -33.3%
CCn1c(C)c(C)c2cc(C(=O)N3CCN(c4cccc(C)c4C)CC3)ccc21 -9.8%
COc1cccc(-n2c(-c3ccco3)nc3c(cnn3-c3ccc(Cl)cc3)c2=O)c1 -5.67%
COc1cccc(N2C(=O)CSC23C(=O)N(CC(=O)Nc2cccc(Cl)c2)c2ccccc23)c1 (stereo unspecified) -18.3%
O=C(CSc1cn(CCNC(=O)c2ccccc2F)c2ccccc12)Nc1ccc(F)cc1 -10.2%
COc1ccc(C)cc1NC(=O)CSc1nc(=O)[nH]c2c1CCCC2 -23.8%
CCC(CC)C(=O)N1CCc2cc(OC)c(OC)cc2C1COc1ccc(C(=O)OC)cc1 (stereo unspecified) -21.9%
COc1ccc(CC(=O)Nc2cc(-c3nc4cccnc4s3)ccc2C)cc1 -3.46%
CN(C)S(=O)(=O)N(CC(=O)NCCSCc1cccc(Cl)c1)c1ccccc1 -14.5%
CCOC(=O)c1ccc(N2C(=O)c3n[nH]c(-c4cccs4)c3C2c2cccc(OC)c2)cc1 (stereo unspecified) -4.46%
O=S(=O)(c1ccc(Cl)cc1)c1nnn2c1nc(NCc1cccs1)c1sccc12 -8.06%
CCOc1ccc(-n2c(=O)c3c4c(sc3n(CC(=O)NC(C)CC)c2=O)CCC4)cc1 (stereo unspecified) -16.8%
CCC(=O)Nc1ccc2nc(SCc3ccccc3)sc2c1 -24.8%
CCc1ccc2oc(-c3cccc(NC(=O)C(C)(C)Oc4ccc(Br)cc4)c3)nc2c1 -5.18%
Cc1ccc(S(=O)(=O)c2nc(-c3ccc(F)cc3)oc2SCC(=O)c2ccccc2)cc1 -28.9%
Cc1ccc(Nc2c(-c3ccc(C)cc3)nc3ccc(C)cn23)cc1 -6.5%
Cc1cc(C)cc(Nc2ncnc3onc(-c4ccc(F)cc4)c23)c1 -9.12%
CCS(=O)(=O)c1nc(S(=O)(=O)c2ccc(C)cc2)c(NC(C)c2ccccc2)s1 (stereo unspecified) -13.9%
